# Test results from paper PMC4336329 (PLoS ONE, 2015).
# Out of some 310,000 compounds screened, about 14,000 (4.5%) showed an effect of 50% or more. The effect is printed as a negative number. Some of the results follow.
# Target: human ether-à-go-go-related gene (hERG) potassium channel (human, UniProt Q12809)
# Test: primary screen, population patch clamp on CHO cells stably expressing hERG
# 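Also: peak tail current of the secondary pulse compared with the same well before compound.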
# Sequence of human ether-à-go-go-related gene (hERG) potassium channel (Q12809 whole entry, looked up): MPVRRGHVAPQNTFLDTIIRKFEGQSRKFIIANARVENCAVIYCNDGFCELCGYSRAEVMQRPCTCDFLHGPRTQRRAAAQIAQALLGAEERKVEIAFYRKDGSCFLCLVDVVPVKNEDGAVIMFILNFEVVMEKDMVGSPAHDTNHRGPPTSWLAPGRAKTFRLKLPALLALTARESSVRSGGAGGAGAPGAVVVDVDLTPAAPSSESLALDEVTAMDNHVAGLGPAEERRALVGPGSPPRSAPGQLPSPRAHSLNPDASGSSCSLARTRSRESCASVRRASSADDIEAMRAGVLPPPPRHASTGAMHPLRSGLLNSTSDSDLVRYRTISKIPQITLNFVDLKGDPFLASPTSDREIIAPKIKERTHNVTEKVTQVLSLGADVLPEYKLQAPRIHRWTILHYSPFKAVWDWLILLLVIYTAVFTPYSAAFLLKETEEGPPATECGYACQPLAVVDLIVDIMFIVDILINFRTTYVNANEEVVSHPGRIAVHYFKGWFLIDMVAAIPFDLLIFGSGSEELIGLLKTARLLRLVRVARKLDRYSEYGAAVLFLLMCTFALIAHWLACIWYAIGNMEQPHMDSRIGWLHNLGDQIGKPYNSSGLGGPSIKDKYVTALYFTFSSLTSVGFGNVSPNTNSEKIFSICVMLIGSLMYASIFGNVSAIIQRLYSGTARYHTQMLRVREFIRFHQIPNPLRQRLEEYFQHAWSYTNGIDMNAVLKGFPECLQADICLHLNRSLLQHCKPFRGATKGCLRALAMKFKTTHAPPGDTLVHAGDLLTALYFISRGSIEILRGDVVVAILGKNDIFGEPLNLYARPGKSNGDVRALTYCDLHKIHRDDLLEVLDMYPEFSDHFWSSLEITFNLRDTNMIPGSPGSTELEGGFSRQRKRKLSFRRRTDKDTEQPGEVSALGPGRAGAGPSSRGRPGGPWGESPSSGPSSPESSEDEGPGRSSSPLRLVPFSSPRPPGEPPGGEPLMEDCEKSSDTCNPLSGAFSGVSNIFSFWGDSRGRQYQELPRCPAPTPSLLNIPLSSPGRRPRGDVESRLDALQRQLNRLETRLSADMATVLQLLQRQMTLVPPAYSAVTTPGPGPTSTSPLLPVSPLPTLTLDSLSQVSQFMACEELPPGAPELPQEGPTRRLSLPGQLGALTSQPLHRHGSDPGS
row,Structure (SMILES),"hERG current change (%, negative = inhibition) at 10uM [%]"
1,CC(C)COP(=O)(c1ccc(N(C)C)cc1)C(Nc1ccccc1)c1ccccc1 (centres unmarked),-7.2
2,CCn1nc(C(C)C)cc1C(=O)N1CCCC(CO)(Cc2ccc(F)cc2F)C1 (centres unmarked),-13.1
3,CCOC(=O)c1c(-c2ccc(C)cc2)csc1NC(=O)CCSc1nnc2ccccn12,13.3
4,O=c1[nH]cnc2nc(-c3ccccc3)c(-c3ccccc3)nc12,-24.1
5,Cc1nc2sc3c(c2c(=O)o1)CCC3,4.18
6,CN(C)c1nc(NCc2ccccc2)nc(N/N=C/c2ccc(Br)cc2)n1,13.3
7,CC(C)C[C@H]1C(=O)N2CCC[C@H]2[C@]2(O)O[C@](NC(=O)[C@@H]3C=C4c5cccc6[nH]c(Br)c(c56)CC4N(C)C3)(C(C)C)C(=O)N12.CS(=O)(=O)O (some centres unmarked),9.86
8,CC(C)(C)c1ccc(-c2csc(NC(=O)CN3C(=O)NC4(CCCCC4)C3=O)n2)cc1,18
9,CCOC(=O)N1CCC(c2cc(=O)n3[nH]ccc3n2)CC1,-3.47
10,CSc1nc(SCC(=O)NCc2ccco2)c2c3c(sc2n1)COC(C)(C)C3,-19.2
11,Cc1nc(SCc2ccccc2F)c2cnn(-c3ccccc3)c2n1,13
12,CCCCNC(=O)N1CCN(c2ccccc2OC)CC1,5.56
13,CC(C)COc1ccc(CSCCNC(=S)Nc2ccccc2)cc1,12.6
14,O=C(Nc1sc2c(c1C(=O)O)CCC2)c1cccs1,20.3
15,COc1ccc(/C(C)=N/Nc2ncc(Cl)cc2Cl)c(O)c1,-5.66
16,O=C(NC1CCCCC1)c1cc(S(=O)(=O)N2CCCC2)ccc1Cl,2.24
17,Cc1nc2c(c(=O)c3ccccc3n2C)c(=O)n1-c1ccccc1,1.57
18,COc1ccc(-c2[nH]ncc2CN2CCCC2c2nonc2C)c(F)c1 (centres unmarked),3.15
19,CC(C)C(NC(=O)c1cccs1)C(=O)NC1=NCCS1 (centres unmarked),7.5
20,COc1ccc(Nc2nc(N)c([N+](=O)[O-])c(NCCO)n2)cc1,-3.25
21,Cc1cc(=O)oc2c3c(cc(OCC(=O)NCc4ccccn4)c12)OC(C)(C)CC3,-26.5

row,Structure (SMILES),"hERG current change (%, negative = inhibition) at 10uM [%]"
1,CC(C)(C)CNc1cc(N2CCOCC2)ccc1[N+](=O)[O-],-6.56
2,COc1cc(OC)cc(C(=O)N2CC(=O)Nc3ccccc32)c1,8.35
3,CC(=O)c1ccc(N2CCN(C(=O)COc3ccc(F)cc3)CC2)c(F)c1,-71.5
4,CC1(C)CC(=O)C2=C(C1)N(Cc1ccccc1)C(=O)C2(NC(=O)C(C)(C)C)C(F)(F)F (centres unmarked),-13.8
5,Cc1csc(=O)n1CCC(=O)OCC(=O)NNC(=O)c1ccccc1,-15.4
6,COc1ccc(S(=O)(=O)Nc2c(C)n(C)n(-c3ccccc3)c2=O)cc1Br,-6.83
7,Cc1ccc2cccc(O)c2[n+]1[O-],4.03
8,CC(C)OC(=O)CC1C(=O)NCCN1C(=S)NC(=O)c1ccc(F)cc1 (centres unmarked),-1.92
9,CS(=O)(=O)N(Cc1ccc(C(=O)N2CCc3ccccc3C2)cc1)c1ccccc1,-13.1
10,Cc1ccc2nsnc2c1NS(=O)(=O)c1c(C)ccc2nsnc12,-26.2
11,Cc1ccc(N2C(=O)c3ccc(C(=O)Nc4cccnc4)cc3C2=O)c(C)c1,-3.01
12,COC(=O)c1[nH]c2cc(OC)ccc2c1NC(=O)c1ccc2c(c1)OCO2,-0.956
13,COC(=O)CCCC1=CC2=C(c3ccccc3)C(=O)C(C)(OC(=O)C3CCCC3)C(=O)C2=CN1c1ccccc1 (centres unmarked),-8.8
14,Cn1ncc(Br)c1C(=O)N/N=C/c1cccc(OC2CSC2)c1,-8.23
15,S=C1Nc2ccccc2Sc2ccccc21,21.7
16,O=C(COC(=O)c1cc(S(=O)(=O)N2CCCC2)ccc1O)Nc1ccc(SC(F)F)cc1,-57.5
17,CCn1c(C)nc2cc(C(=O)N3N=C(CCOC)CC3(O)C(F)(F)F)ccc21 (centres unmarked),-7.02
18,Cc1cccc(CS(=O)(=O)Cc2ccc(C(=O)NCCCN3CCOCC3)o2)c1,-12.6
19,O=C(N[C@@H]1C[C@H]2CC[C@@H]1C2)c1ccco1,4.88
20,Cc1nn(-c2ccccc2)c(N2CCCC2)c1/C=N/NC(=S)Nc1ccccc1C(F)(F)F,7.24
21,CCCCn1c(CN(Cc2ccccc2)Cc2ccccc2)nc2c1c(=O)n(C)c(=O)n2C,-4.74

row,Structure (SMILES),"hERG current change (%, negative = inhibition) at 10uM [%]"
1,NC(=O)CC(NC(=O)Cc1cccc2ccccc12)c1ccc(NC2CCC2)c([N+](=O)[O-])c1 (centres unmarked),-1.82
2,CC(C)(C)c1ccc(C(=O)NCC(=O)N/N=C/c2cccnc2)cc1,0.348
3,C=C[C@]1(C)C[C@@H](OC(=O)CSCCN(CC)CC)[C@]2(C)C(C)CC[C@]3(CCC(=O)[C@H]32)[C@@H](C)[C@@H]1O.O=C(O)/C=C/C(=O)O (some centres unmarked),-68.3
4,CCN(Cc1ccncc1)Cc1cn(C)nc1-c1ccc(Oc2ccccc2)cc1,-35.8
5,CCOC(=O)C1(Cc2cccc(OC)c2)CCN(Cc2ccc3c(c2)OCCO3)CC1,-38
6,CC1(C)Cc2c(cnn2-c2ccccc2)C(NC(=O)CCc2ccncc2)C1 (centres unmarked),-68.8
7,COCCNc1nc(C)cc(-c2cc(-c3ccc(Cl)cc3)on2)n1,6.74
8,Cc1ccc(NC(=O)CN(C)CC(=O)NC2CCCc3ccccc32)cc1 (centres unmarked),-21.3
9,COc1ccccc1C(=O)Nc1nnc(-c2ccco2)s1,9.73
10,CCOC(=O)N1CCN(C(=O)CSCC(=O)Nc2nc(-c3ccccc3)cs2)CC1,-50.5
11,Cc1cccc([C@@H]2[C@@H]3C(=O)N(Cc4ccccc4)C(=O)[C@@H]3[C@]3(C)C(=O)N(c4cccc(F)c4)C(=O)N23)c1,2.17
12,COc1ccc(NS(=O)(=O)c2cccc(C(=O)N/N=C(\C)c3ccc(-n4ccnc4)cc3)c2)cc1,19.3
13,CCOc1cccc(CNCCNC(=O)c2nonc2N)c1.Cl,-7.85
14,O=C(CSc1nnc(Cc2ccccc2)n1Cc1ccccc1)NCc1ccco1,-36.6
15,Fc1cc(F)nc(NCc2ccccc2)n1,1.59
16,O=C(Nc1ccccc1C(=O)N1CCCCC1)c1cc(F)c(F)cc1Cl,1.47
17,C/C=C/C1=CC(=O)C[C@H](c2ccc(F)cc2)C1,-34.3
18,CCOC(=O)c1sc2nccc(N(C)C)c2c1N=CN(C)C,-18.5
19,O=C(NC1CCCC1)C1CCCN(C(=O)Nc2ccccc2)C1 (centres unmarked),4.42
20,COc1ccc(N(C(=O)Cn2nnc3ccccc32)C(C(=O)NCc2ccco2)c2ccncc2)cc1 (centres unmarked),11.3
21,CCCn1c(SCC(=O)Nc2ccccc2N2CCOCC2)nc2c1c(=O)n(C)c(=O)n2C,-15.3

row,Structure (SMILES),"hERG current change (%, negative = inhibition) at 10uM [%]"
1,Cc1cc(=O)oc2cc(OCC(=O)Nc3cccc(S(=O)(=O)N(C)C)c3)ccc12,-10.8
2,CCOC(=O)Cc1csc(NC(=O)/C=C\c2ccccc2)n1,-23.1
3,CN(CC(=O)Nc1ccccc1Cl)C1CCS(=O)(=O)C1 (centres unmarked),-4.9
4,CN1C(=O)/C(=C/c2ccc(O)c([N+](=O)[O-])c2)NC1=S,27.4
5,COc1c(F)c(F)c(C(=O)Nc2ccc(NC(=O)Cc3ccccc3)cc2)c(F)c1F,24.4
6,CP(=O)(O)CN1CCCCC1,10.6
7,Cl.FC(F)(F)c1cccc(C2NCc3ccccc3-n3cccc32)c1 (centres unmarked),-3.13
8,COc1ccc(OCC(=O)NNC(=O)c2ccccc2OCc2c(C)noc2C)cc1,-9.19
9,COc1ccccc1C/C(N)=N/OC(=O)c1cccc([N+](=O)[O-])c1C,-9.76
10,COc1ccc(N2C(=O)[C@@H]3[C@H](C2=O)[C@H](C(=O)c2ccc(OC(C)=O)cc2)N2N=CC=C[C@@H]32)cc1,0.585
11,CCOC(=O)c1[nH]c2ccc(F)cc2c1NC(=O)C(C)N1CCc2cc(OC)c(OC)cc2C1 (centres unmarked),-10.6
12,CCOc1ccc(N(CC(=O)NCCSCc2ccco2)S(=O)(=O)c2ccc(F)cc2)cc1,2.3
13,CC(C)OC(=O)c1cccc2c1C(=O)c1ccccc1-2,5.86
14,COC(=O)C1(C(F)(F)F)C2C=CC(C2)N1S(=O)(=O)c1ccc(C)cc1 (centres unmarked),2.19
15,Cn1c(=O)c2cn3c(c2n(C)c1=O)C(c1ccccc1)CC(c1ccccc1)=N3 (centres unmarked),-18.4
16,CN(CC(=O)NC1CCCCC1)S(=O)(=O)c1cccc2nsnc12,-0.675
17,CCn1c(Cc2ccc(OC)cc2)nc2ccccc21,6.11
18,COCCN(C(=O)c1ccc2ccccc2c1)c1c(N)n(Cc2ccccc2)c(=O)[nH]c1=O,16.9
19,Cc1ccc(S(=O)(=O)NC(=NC2CCCCC2)c2ccc(Cl)cc2)cc1,7.95
20,COc1ccc(C(C)=O)cc1COc1ccc(-n2cnnn2)cc1,-41.3
